The values that follow come from patent US20070254863A1 (priority 2006, published 2007).

The test addresses human cannabinoid CB1 receptor (Homo sapiens, UniProt P21554). As to the kind of experiment: biochemical. The class given is binding.
Where [1] appears, read: cloned human CB1 receptor expressed in CHO cells, read-out: Affinity to CB1 (converted).

The structures appear in SMILES notation. Read-outs that look alike come from different tables or passages of the source.

UniProt P21554, sequence (P21554 whole entry): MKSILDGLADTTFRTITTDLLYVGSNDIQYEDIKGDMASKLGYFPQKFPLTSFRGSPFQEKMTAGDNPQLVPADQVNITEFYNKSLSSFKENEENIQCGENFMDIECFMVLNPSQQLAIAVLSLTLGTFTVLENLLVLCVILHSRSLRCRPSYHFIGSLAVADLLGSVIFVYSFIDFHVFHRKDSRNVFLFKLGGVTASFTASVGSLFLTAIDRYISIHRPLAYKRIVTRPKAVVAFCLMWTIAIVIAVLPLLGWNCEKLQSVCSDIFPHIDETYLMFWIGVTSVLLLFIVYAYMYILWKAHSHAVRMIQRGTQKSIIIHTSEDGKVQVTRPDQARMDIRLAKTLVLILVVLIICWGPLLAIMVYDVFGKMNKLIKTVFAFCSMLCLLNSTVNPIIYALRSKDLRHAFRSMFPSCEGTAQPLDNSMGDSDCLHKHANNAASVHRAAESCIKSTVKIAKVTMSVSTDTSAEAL

As to `CNC(=NS(=O)(=O)c1ccc(Cl)cc1)N1CC(c2cccnc2)C(c2ccc(Cl)cc2)=N1` (stereo not shown), the Ki under setting [1] is 79.4 nM.

Take `Cn1c(C(=O)NC2CCCCC2)nc(-c2ccc(Cl)cc2Cl)c1-c1ccc(Cl)cc1`: under setting [1], the Ki is 79.4 nM.

In the case of `O=S(=O)(N=C(NCC1CCNCC1)N1CC(c2ccccc2)C(c2ccc(Cl)cc2)=N1)c1ccc(Cl)cc1` (stereo not shown), under setting [1], the Ki is 2.51 nM.

In the case of `O=S(=O)(N=C(NCC1CC1)N1CC(c2ccccc2)C(c2ccc(Cl)cc2)=N1)N1CCOCC1` (stereo not shown), under setting [1], the Ki is 3.16 nM.

`N/C(=N\S(=O)(=O)c1ccc(Cl)cc1)N1C[C@@H](c2ccccc2)C(c2ccc(Cl)cc2)=N1` (stereo in doubt) [N-{Amino-[3-(4-chloro-phenyl)-4-phenyl-4,5-dihydro-pyrazol-1-yl]-methylene}-4-chloro-benzenesulfonamide]: the Ki under setting [1] is 3.98 nM.

On to `O=C(NN1CCCCC1)c1nc(-c2ccc(Cl)cc2Cl)n(-c2ccc(Br)cc2)c1Cl` [1-(4-Bromo-phenyl)-5-chloro-2-(2,4-dichloro-phenyl)-1H-imidazole-4-carboxylic acid piperidin-1-ylamide], for which the Ki under setting [1] is 2.51 nM.

Regarding `O=C(NN1CCCCC1)c1cn(-c2ccc(Cl)cc2)c(-c2ccc(Cl)cc2Cl)n1` [1-(4-Chloro-phenyl)-2-(2,4-dichloro-phenyl)-1H-imidazole-4-carboxylic acid piperidin-1-ylamide], the Ki (Affinity to CB1) was 7.94 nM.

For `O=C(NN1CCCCC1)c1nc(-c2ccc(Cl)cc2Cl)n(-c2ccc(Cl)cc2)c1CC(F)(F)F` [1-(4-Chloro-phenyl)-2-(2,4-dichloro-phenyl)-5-(2,2,2-trifluoro-ethyl)-1H-imidazole-4-carboxylic acid piperidin-1-ylamide], the Ki under setting [1] is 31.6 nM.

For the molecule `CCc1c(C(=O)NN2CCCCC2)nc(-c2ccc(Cl)cc2Cl)n1-c1ccc(Cl)cc1` [1-(4-Chloro-phenyl)-2-(2,4-dichloro-phenyl)-5-ethyl-1H-imidazol-4-carboxylic acid piperidin-1-ylamide], the Ki under setting [1] was 2 nM.

`CCSc1c(C(=O)NN2CCCCC2)nc(-c2ccc(Cl)cc2Cl)n1-c1ccc(Cl)cc1` [1-(4-Chloro-phenyl)-2-(2,4-dichloro-phenyl)-5-ethylsulfanyl-1H-imidazole-4-carboxylic acid piperidin-1-ylamide]: the Ki under setting [1] was 39.8 nM.

For the molecule `O=C(NN1CCCCC1)c1nc(-c2ccc(Cl)cc2Cl)n(-c2ccc(Cl)cc2)c1CO` [1-(4-Chloro-phenyl)-2-(2,4-dichloro-phenyl)-5-hydroxymethyl-1H-imidazole-4-carboxylic acid piperidin-1-ylamide], the Ki under setting [1] is 25.1 nM.

For the molecule `C[S+]([O-])c1c(C(=O)NN2CCCCC2)nc(-c2ccc(Cl)cc2Cl)n1-c1ccc(Cl)cc1` (stereo not shown) [1-(4-Chloro-phenyl)-2-(2,4-dichloro-phenyl)-5-methanesulfinyl-1H-imidazole-4-carboxylic acid piperidin-1-ylamide], the Ki under setting [1] is 39.8 nM.

For the molecule `Cc1c(C(=O)NC2CCC(O)CC2)nc(-c2ccc(Cl)cc2Cl)n1-c1ccc(Cl)cc1` (stereo not shown) [1-(4-Chloro-phenyl)-2-(2,4-dichloro-phenyl)-5-methyl-1H-imidazole-4-carboxylic acid (4-hydroxy-cyclo-hexyl)-amide], under setting [1], the Ki was 251 nM.

On to `CCCCCc1nc(-c2ccc(Cl)cc2Cl)n(-c2ccc(Cl)cc2)c1C` [1-(4-Chloro-phenyl)-2-(2,4-dichloro-phenyl)-5-methyl-4-pentyl-1H-imidazole], for which, under setting [1], the Ki is 100 nM.

Regarding `CSc1c(C(=O)NN2CCCCC2)nc(-c2ccc(Cl)cc2Cl)n1-c1ccc(Cl)cc1` [1-(4-Chloro-phenyl)-2-(2,4-dichloro-phenyl)-5-methylsulfanyl-1H-imidazole-4-carboxylic acid piperidin-1-ylamide], the Ki under setting [1] is 10 nM.

With `O=C(NN1CCCCC1)c1nc(-c2ccc(Cl)cc2Cl)n(-c2ccc(Cl)cc2)c1CN1CCCC1` [1-(4-Chloro-phenyl)-2-(2,4-dichloro-phenyl)-5-pyrrolidin-1-ylmethyl-1H-imidazole-4-carboxylic acid piperidin-1-ylamide], the Ki under setting [1] was 501 nM.

Consider `CCc1c(C(=O)NN2CCCCC2)nc(-c2ccccc2Cl)n1-c1ccc(Cl)cc1` [1-(4-Chloro-phenyl)-2-(2-chloro-phenyl)-5-ethyl-1H-imidazole-4-carboxylic acid piperidin-1-ylamide, reference compound], for which, under setting [1], the Ki was 12.6 nM.

On to `O=C(NN1CCCCC1)c1nc(-c2ccc(Cl)cc2Cl)n(-c2ccc(Cl)cc2)n1` [1-(4-Chloro-phenyl)-5-(2,4-dichloro-phenyl)-1H-[1,2,4]triazole-3-carboxylic acid piperidin-1-yl-amide], for which the Ki under setting [1] was 316 nM.

As to `N=C(N)C1=NN(c2ccc(Cl)cc2)C(c2ccccc2)C1` (stereo not shown) [1-(4-Chloro-phenyl)-5-phenyl-4,5-dihydro-1H-pyrazole-3-carboxamidine], the Ki under setting [1] was 631 nM.

For the molecule `O=C(NN1CCCCC1)C1=NN(c2ccc(Cl)cc2)C(c2ccccc2)C1` (stereo not shown) [1-(4-Chloro-phenyl)-5-phenyl-4,5-dihydro-1H-pyrazole-3-carboxylic acid piperidin-1-ylamide], the Ki under setting [1] was 63.1 nM.

As to `CS(=O)(=O)C(=C1CN(C(c2ccc(Cl)cc2)c2ccc(Cl)cc2)C1)c1cc(F)cc(F)c1` [1-[Bis-(4-chloro-phenyl)-methyl]-3-[(3,5-difluoro-phenyl)-methanesulfonyl-methylene]-azetidine, reference compound], the Ki under setting [1] is 6.31 nM.

Consider `NC(=O)C1CCN(C(=NS(=O)(=O)c2ccc(Cl)cc2)N2CC(c3ccccc3)C(c3ccc(Cl)cc3)=N2)CC1` (stereo not shown) [1-{(4-Chloro-benzene-sulfonylimino)-[3-(4-chloro-phenyl)-4-phenyl-4,5-dihydro-pyrazol-1-yl]-methyl}-piperidine-4-carboxylic acid amide], for which the Ki under setting [1] was 6.31 nM.

As for `O=C(NN1CCCCC1)c1cn(-c2ccc(C(F)(F)F)cc2)c(-c2ccc(Cl)cc2Cl)n1` [2-(2,4-Dichloro-phenyl)-1-(4-trifluoromethyl-phenyl)-1H-imidazole-4-carboxylic acid piperidin-1-ylamide], the Ki under setting [1] was 25.1 nM.

For the molecule `Cc1c(C(=O)NN2CCCCC2)nc(-c2ccc(Cl)cc2Cl)n1-c1ccccn1` [2-(2,4-Dichloro-phenyl)-5-methyl-1-pyridin-2-yl-1H-imidazole-4-carboxylic acid piperidin-1-ylamide], the Ki under setting [1] is 50.1 nM.

`O=C(NN1CCCCC1)c1cn(-c2ccc(C(F)(F)F)cc2)c(-c2ccccc2Cl)n1` [2-(2-Chloro-phenyl)-1-(4-trifluoromethyl-phenyl)-1H-imidazole-4-carboxylic acid piperidin-1-ylamide]: the Ki under setting [1] is 100 nM.

For the molecule `CCCCC(C)(O)c1nc(-c2ccc(Cl)cc2Cl)n(-c2ccc(Cl)cc2)c1C` (stereo not shown) [2-[1-(4-Chloro-phenyl)-2-(2,4-dichloro-phenyl)-5-methyl-1H-imidazol-4-yl]-hexan-2-ol], the Ki under setting [1] was 251 nM.

Take `CCC1CN=C(N2CC(c3ccccc3)C(c3ccc(Cl)cc3)=N2)O1` (stereo not shown) [2-[3-(4-Chloro-phenyl)-4-phenyl-4,5-dihydro-pyrazol-1-yl]-5-ethyl-4,5-dihydro-oxazole]: under setting [1], the Ki is 631 nM.

Take `Cn1c(C(=O)NC2CCCCC2)nc(-c2ccc(Cl)cc2)c1-c1ccc(Cl)cc1Cl` [4-(4-Chloro-phenyl)-5-(2,4-dichloro-phenyl)-1-methyl-1H-imidazole-2-carboxylic acid cyclohexylamide]: the Ki (Affinity to CB1) was 63.1 nM.

As for `O=C(NS(=O)(=O)c1ccc(Cl)cc1)N1CC(c2ccccc2)C(c2ccc(Cl)cc2)=N1` (stereo not shown) [4-Chloro-N-[3-(4-chloro-phenyl)-4-phenyl-4,5-dihydro-pyrazole-1-carbonyl]-benzenesulfonamide], the Ki under setting [1] was 316 nM.

For `N#CCCNC(=NS(=O)(=O)c1ccc(Cl)cc1)N1CC(c2ccccc2)C(c2ccc(Cl)cc2)=N1` (stereo not shown) [4-Chloro-N-[[3-(4-chloro-phenyl)-4-phenyl-4,5-dihydro-pyrazol-1-yl]-(2-cyano-ethylamino)-methylene]-benzene sulfonamide], the Ki under setting [1] is 12.6 nM.

`CCNCCN/C(=N\S(=O)(=O)c1ccc(Cl)cc1)N1CC(c2ccccc2)C(c2ccc(Cl)cc2)=N1` (stereo not shown) [4-Chloro-N-[[3-(4-chloro-phenyl)-4-phenyl-4,5-dihydro-pyrazol-1-yl]-(2-ethylamino-ethylamino)-methylene]-Benzenesulfonamide]: the Ki under setting [1] was 7.94 nM.

As for `CC(C)(CO)CN/C(=N\S(=O)(=O)c1ccc(Cl)cc1)N1CC(c2ccccc2)C(c2ccc(Cl)cc2)=N1` (stereo not shown) [4-Chloro-N-[[3-(4-chloro-phenyl)-4-phenyl-4,5-dihydro-pyrazol-1-yl]-(3-hydroxy-2,2-dimethyl-propylamino)-methylene]-benzenesulfonamide], under setting [1], the Ki was 200 nM.

For the molecule `O=S(=O)(N=C(NCCCCN1CCCC1)N1CC(c2ccccc2)C(c2ccc(Cl)cc2)=N1)c1ccc(Cl)cc1` (stereo not shown) [4-Chloro-N-[[3-(4-chloro-phenyl)-4-phenyl-4,5-dihydro-pyrazol-1-yl]-(4-pyrrolidin-1-yl-butylamino)-methylene]-benzenesulfonamide], the Ki under setting [1] was 39.8 nM.

Take `CON(C)C(=NS(=O)(=O)c1ccc(Cl)cc1)N1CC(c2ccccc2)C(c2ccc(Cl)cc2)=N1` (stereo not shown) [4-Chloro-N-[[3-(4-chloro-phenyl)-4-phenyl-4,5-dihydro-pyrazol-1-yl]-(methoxy-methyl-amino)-methylene]-benzenesulfonamide]: the Ki under setting [1] is 200 nM.

As to `O=S(=O)(N=C(NC1CCNCC1)N1CC(c2ccccc2)C(c2ccc(Cl)cc2)=N1)c1ccc(Cl)cc1` (stereo not shown) [4-Chloro-N-[[3-(4-chloro-phenyl)-4-phenyl-4,5-dihydro-pyrazol-1-yl]-(piperidin-4-ylamino)-methylene]-benzenesulfonamide], under setting [1], the Ki is 6.31 nM.

As for `CON/C(=N\S(=O)(=O)c1ccc(Cl)cc1)N1C[C@H](c2cccc(F)c2)C(c2ccc(Cl)cc2)=N1` [4-Chloro-N-{[3-(4-chloro-phenyl)-4-(3-fluoro-phenyl)-4,5-dihydro-pyrazol-1-yl]-methoxyamino-methylene}-benzenesulfonamide], the Ki under setting [1] was 20 nM.

In the case of `CN1CCCC1CN/C(=N\S(=O)(=O)c1ccc(Cl)cc1)N1CC(c2ccccc2)C(c2ccc(Cl)cc2)=N1` (stereo not shown) [4-Chloro-N-{[3-(4-chloro-phenyl)-4-phenyl-4,5-dihydro-pyrazol-1-yl]-[(1-methyl-pyrrolidin-2-ylmethyl)-amino]-methylene}-benzenesulfonamide], the Ki under setting [1] was 5.01 nM.
